Results: the supplement of paper PMC10126150
Sequences with one replicate were seen in a single cluster, so their values are uncertain.

Test system: ATP
Experiment: switch fluorescence ratio, 500 uM ATP over buffer (Cy3 cluster intensity, sum of 5 cycles each) (fold (ratio)); higher = stronger signal-on switching upon ATP binding; sequences stand for … in TCGTCGGCAGCGTCAGATGTGTATAAGAGACAGTTTTTTTTTTTTTTTTTTTTTTTTT…TC
Conditions: aptamer strand: ATP DNA aptamer (quencher-CACCTGGGGGAGTATTGCGGAGGAAGG + anchor), 100 nM annealed; ATP concentration: 500 uM; one replicate
In short: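 Clusters carrying Cy3-labelled switching strands on a modified Illumina MiSeq flow-cell were annealed to 100 nM quencher-labelled ATP aptamer and imaged in selection buffer. They were imaged again after 15 min with 500 uM ATP at 22 °C, over five buffer/ATP cycles with NaOH stripping and re-annealing in between. For each cluster, the fluorescence ratio is the summed Cy3 intensity of the target cycles divided by that of the buffer cycles, averaged per switch-domain sequence. Clusters outside 100-1000 RFU were left out.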
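Also: ATP exposure 15 min at 22 °C before imaging.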

Sequence	switch fluorescence ratio
GCTCTTCCAT	0.996
TAATTCATCA	1.02
TAAGAACCTA	1
TCATAATCAA	0.99
GCGGCCAAAA	1.16
TACATACGGG	1.46
GGTTTGAGCT	0.965
TCTGGGATAT	1.01
TAGGCCCTT	1.02
TTCTCCGTCC	3.03
TCAGGTTTCT	0.981
ACGTGATATT	1.18
TATAGGTG	1.22
ATTTTGCCTG	1.04
TTCATCCTTT	1.06
TACTCTGCCG	1.18
GATCTGCGT	0.988
CAGCCGTCGG	1.03
TAGATAAAAT	1.02
GGGCATGTGT	0.954
GATTATCGGC	1.09
TATGTTAAGG	1.01
ATTAAACAGA	0.96

Sequence	switch fluorescence ratio
GGCCGGGCTG	0.981
CCTCAGCCAC	2.87
AGAGACGACA	1.07
ATGCCTATTT	1.02
CGTATAGCAT	0.982
ACTCTATTGT	1.06
ACTTTTCACA	1.07
AAAATGGTAG	1
AAAAATAAGG	0.986
ATTTAGTGCA	1.07
GAGTGTGGAG	0.983
GCAACATTAG	1.04
CTCACCAAA	1.02
ACACGTAGAT	1.1
TCGCATCCTA	1.17
AAGCCTGTGG	0.957
GGGTTTAGTC	1.05
ATTTAAAGTC	0.99
ATTATCGCCA	0.979
TGGTATTAAG	1.03
CTCATGATCC	1.13
AACCTCACTT	1.16
AGTTGGCCGC	0.97

Sequence	switch fluorescence ratio
TCTAACTAAT	1.38
CTTGCGGCTG	0.991
GGGGTACAAG	0.981
AGGGAATATG	0.973
AGCTTACG	1.09
ACTGTCGTCC	0.999
ACGCGTATCG	1.05
AGACGATCGA	0.941
TCGACAGCTA	1.01
GCGCGTTATT	1.01
CCAGCAGCGA	2.77
TATTCTATCC	1.01
GCTCAACCCC	1.04
CTTGGGTAAC	1.4
TGGGCTTGAG	1.23
GCCCGCTTCT	0.958
GCATCCGATT	1.08
TAGTGGA	1.03
TGTCATTAGT	0.989
CGATATTAAA	1
TCTCGCGATT	1.76
AACGACCCGC	1.24
CTGTGGGCAC	1.02

Sequence	switch fluorescence ratio
TCCAGGATCG	1.02
TGGTACAAG	1
CGCGGGGTGG	1
CCACGCCAAT	4.55
ACCACATTGA	1.03
GATGTGAGGT	0.966
CCTCAGGCTT	2.66
CCTGCGGTGG	1.02
TTGTGGGTGA	1
GTTGTGTAAT	0.988
TCGTGTAAGT	0.983
AGGCAGGGG	1.05
GCTTTAAAGT	1.03
TCGTTATTG	0.975
CACTAGCGGG	1.01
GATCTCGATC	1.04
AGCGCGGGGT	0.992
AGAAAGCGAG	1.03
CCGTAAAATA	1.14
CCAGCATCAT	1
CATATTTTA	1.02
CAGGATATAA	1.04
GCTCGCACTA	1.32

Sequence	switch fluorescence ratio
AAGGACGCGA	1.32
GACTTTGGTT	1.01
AGGGTACGAG	1.02
GGATGATGTC	0.78
CGTTTGCTGT	0.953
CGTCTGGTTA	1.02
TTCGCAAGTG	1.3
AGCTTAGTGC	1.08
TATGGGGTT	1
TTTACGGCAG	1.07
GGGATATACT	1.17
TTAAGGTATA	1.04
TCGTCACGA	0.997
GTCCTGCGGG	0.92
TGTTGAATCG	1.01
CTACACGCCG	1.18
TTCGACCTGA	1.11
GCTTGGGTTG	1.05
TAGGAACGCC	0.972
TGCAATAAGA	1.16
GGAATTCGAG	1.03
TTGGACGCGC	1.04
CGCTAGGAGT	1.02

Sequence	switch fluorescence ratio
AGGTCGGAT	1.07
CGCTTGTTGC	1.08
GTCACGGCTT	1.04
AAGTCATAT	0.987
CATTGCCACT	0.958
AGACTTTTAA	1.01
GATTCATTGC	0.99
TATTGGCATT	0.971
TGCACGGTTT	0.992
GAAATCCACG	1.02
TCTCAGGATA	1.04
GATGTAGTCA	0.973
CCGTTTGAGC	1.05
TAAATATTCG	0.911
AAAAGCAAGG	0.986
TATAATCAGG	1.02
ATACCAGAAG	0.985
CCTGAATTTG	0.967
AAATTGTCGG	0.982
GTTGTACATT	0.955
GGGCGGATAG	0.989
GTTGTTCATA	1.02
TCTATAAGAT	1.1

Sequence	switch fluorescence ratio
TTCCAGCAGG	1.19
TTCGACCTTA	1.08
GTATGACCCA	1.01
TGATCGAGCC	1.04
TTCCTTCACA	1.14
CGATCATTAC	2.82
TAAATGTTCA	0.987
TTACTGGTGA	1.09
TACAACTGCA	1.08
GAGTCCCGAT	1.06
TAGGCACCTT	1.01
ACCCATGTAT	1.03
TACATTCGGT	1
CATAGGTGAG	0.998
ACTCAGAAGT	1.04
TAACTGGGGG	1.04
CTATCGACGC	1.58
GCCTTTTGTA	1.09
TACGCAACA	1.79
